# Inconclusive results, whose numbers are uncertain, are shown with a selection of clear calls. Potencies of inconclusive entries are doubtful fits and often do not repeat. Active and inactive are the calls of the source. Calls come from the whole dose curve; as a rule, active = well fitted curve in the direction sought with a large enough effect; inconclusive = small, poorly fitted or top-dose-only effect, or another doubt; inactive = no such curve, though single readings can be large; an effect the other way counts as inactive or inconclusive.
# Experiments:
# [1] = molecular target: Rap guanine nucleotide exchange factor 3 (Homo sapiens) (UniProt O95398); assay: Confirmatory qHTS for antagonist of cAMP-regulated guanine nucleotide exchange factor 3 (EPAC1) (AID 1645880); settings: EPAC1 Rap1B-BODIPY-GDP exchange, fluorescence; activity, negative = inhibition: at 115 µM (top of the series); note: nearly all actives have a fitted effect of over 55% in size;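 for activity, negative = inhibition: plate controls were DMSO only for no effect and full effect of the ATA control for full effect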
# Summary of the method: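 Released BODIPY-GDP fluoresces less than Rap1-bound BODIPY-GDP; the signal is followed at 480/540 nm at 5-min intervals over 30 min, after 5 min at room temperature. Reactions contain 100 nM EPAC1, 250 nM RAP1B-BODIPY-GDP and 50 uM GDP; results are normalized to ATA and DMSO.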
# [2] = molecular target: Rap guanine nucleotide exchange factor 3 (Homo sapiens) (UniProt O95398); assay: Counterscreen qHTS for agonist of cAMP-regulated guanine nucleotide exchange factor 3 (EPAC1) (AID 1645889); settings: EPAC1 Rap1B-BODIPY-GDP exchange, fluorescence; activation: at 154 µM (top of the series) unless noted; note: nearly all actives have a fitted effect of over 40% in size; for activation: % of control where 0% means no effect
# Summary of the method: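 Rap1B–BODIPY-GDP (250 nM) with 50 uM GDP; compounds pin-transferred to 9.74 nM–152 uM final (activator) or from 7.32 nM upwards (inhibitor). Fluorescence Ex/Em 480/540 nm read at 5 and 30 min, then after adding cAMP or buffer, at room temperature.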
# Potency is the fitted concentration of half-maximal effect; tags give direction and shape of the fitted curve.
# Chain of UniProt O95398 (O95398 whole entry, looked up): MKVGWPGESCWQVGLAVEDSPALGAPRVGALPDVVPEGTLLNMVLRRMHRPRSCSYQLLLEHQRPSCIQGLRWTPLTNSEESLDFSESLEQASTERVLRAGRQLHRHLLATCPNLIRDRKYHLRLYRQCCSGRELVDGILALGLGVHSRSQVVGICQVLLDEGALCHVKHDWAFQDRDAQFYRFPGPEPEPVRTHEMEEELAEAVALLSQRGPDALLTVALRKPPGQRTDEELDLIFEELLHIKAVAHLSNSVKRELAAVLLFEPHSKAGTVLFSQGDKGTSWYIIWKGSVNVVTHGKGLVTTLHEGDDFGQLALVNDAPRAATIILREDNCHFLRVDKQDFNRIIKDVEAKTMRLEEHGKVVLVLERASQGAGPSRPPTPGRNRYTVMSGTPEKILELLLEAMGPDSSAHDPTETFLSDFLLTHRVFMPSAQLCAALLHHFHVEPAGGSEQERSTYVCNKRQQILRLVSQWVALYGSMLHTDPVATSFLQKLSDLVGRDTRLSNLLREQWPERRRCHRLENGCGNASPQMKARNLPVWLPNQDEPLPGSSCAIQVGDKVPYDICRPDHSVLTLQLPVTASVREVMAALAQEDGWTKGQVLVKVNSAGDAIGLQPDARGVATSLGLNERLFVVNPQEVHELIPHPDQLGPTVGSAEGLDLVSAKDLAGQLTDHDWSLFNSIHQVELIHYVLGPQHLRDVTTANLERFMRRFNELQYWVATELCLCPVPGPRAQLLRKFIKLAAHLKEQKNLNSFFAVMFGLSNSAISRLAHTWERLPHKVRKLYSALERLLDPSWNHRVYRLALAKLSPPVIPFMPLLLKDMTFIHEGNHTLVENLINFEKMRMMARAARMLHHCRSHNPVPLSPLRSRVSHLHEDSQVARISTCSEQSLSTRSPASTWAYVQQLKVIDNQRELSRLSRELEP
SMILES,Potency [1],activation [2],Potency [2]
COc1ccccc1Nc1nc(N)nc(CN2CCC(C)CC2)n1,inactive,inconclusive: 28.5% [activator],
CCc1ccc(C(c2ccccc2)c2c(C)[nH]c3ccccc23)s1 (stereo unspecified),"inconclusive: 95.3 µM [inhibitor, single point]",inconclusive: 50% [activator],
CCOc1ccc(S(=O)(=O)Nc2ccc(F)cc2)c(C)c1C,"inconclusive: 75.7 µM [inhibitor, partial curve]",inconclusive: 6.77% [activator],
NS(=O)(=O)c1ccc(CCNC(=O)Cc2ccc(S(=O)(=O)N3CCCC3)s2)cc1,"inconclusive: 56.2 µM [inhibitor, partial curve, poor fit]",inactive: 24% [at 30.8 µM],
C#Cc1ccc([C@@H]2C=C(C(=O)OCC=C)O[C@H](OCc3ccc(CO)cc3)C2)cc1,"inconclusive: 56.2 µM [inhibitor, partial curve, poor fit]",,"inconclusive: 0.708 µM [activator, partial curve]"
CS(=O)(=O)Nc1ccc(C2=NN(C(=O)c3cccc(F)c3)C(c3cccs3)C2)cc1 (stereo unspecified),inactive,,"inconclusive: 15.8 µM [activator, partial curve, poor fit]"
Oc1ccc(Cc2ccc(Cl)cc2)c(O)c1,"inconclusive: 50.1 µM [inhibitor, partial curve, poor fit]",,"inconclusive: 11.2 µM [activator, partial curve, poor fit]"
CCCOc1c(OC)cccc1C1CC(=O)Nc2cc(OC)c(OC)c(OC)c21 (stereo unspecified),inactive,,inactive
O=[N+]([O-])c1cc2c(cc1CN1CCN(CCOCCO)CC1)OCO2,"inconclusive: 47.8 µM [inhibitor, partial curve, poor fit]",,inactive
CCc1ccc2c(c1)NC(=O)C2(C)Cc1ccc(F)cc1 (stereo unspecified),"inconclusive: 44.7 µM [inhibitor, partial curve]",,"inconclusive: 0.0126 µM [activator, full curve]"
O=c1nc2s/c(=C\c3ccc(-c4ccccc4[N+](=O)[O-])o3)c(=O)n2nc1-c1ccccc1,active: 12 µM,,"inconclusive: 79.4 µM [activator, single point]"
COCCN1C(=O)c2[nH]nc(-c3ccccc3O)c2C1c1ccc(Cl)c(Cl)c1 (stereo unspecified),"inconclusive: 95.3 µM [inhibitor, partial curve, poor fit]",,"inconclusive: 3.98 µM [activator, full curve]"
COc1ccccc1-c1nnc(SCC(=O)c2ccc(C3CCCCC3)cc2)n1Cc1ccco1,"inconclusive: 75.7 µM [inhibitor, partial curve]",,"inconclusive: 0.316 µM [activator, full curve, poor fit]"
COc1cc(OC)c(NC(=O)CN(C)S(=O)(=O)c2ccc(-c3ccc(=O)[nH]n3)s2)cc1Cl,"inconclusive: 42.6 µM [inhibitor, partial curve]",inconclusive: 65.7% [activator],
Cc1cccc(NC(=O)CN2C(=O)S/C(=C\c3cccn3-c3cccc(C(=O)O)c3)C2=O)c1,"inconclusive: 30.1 µM [inhibitor, full curve]",,"inconclusive: 22.4 µM [activator, partial curve, poor fit]"
CCC(C)NC(=O)Cn1c(=O)n(CCCCCC(=O)Nc2ccccc2)c(=O)c2sccc21 (stereo unspecified),inactive,,inactive
Oc1ccc(/C=N/Nc2ncnc3c2ncn3Cc2ccccc2)cc1O,active: 3.55 µM,inactive: 1.06% [at 30.8 µM],
O=C(CC(c1ccccc1)c1cc(Cl)ccc1O)N1CCCC1 (stereo unspecified),"inconclusive: 95.3 µM [inhibitor, partial curve, poor fit]",inconclusive: 55.5% [activator],
COCCN(CCOC)Cc1cc(=O)oc2cc(C)c(C)cc12,inactive,,"inconclusive: 0.01 µM [activator, full curve, poor fit]"
Cc1cc(Nc2ccccc2)n(-c2nc3ccccc3[nH]2)n1,inactive,,"inconclusive: 3.98 µM [activator, partial curve, poor fit]"
CC1OC(CC(=O)O)CC2=C1C(=O)c1c(O)cccc1C2=O (stereo unspecified),"inconclusive: 19 µM [inhibitor, full curve]",,"inconclusive: 7.94 µM [activator, partial curve, poor fit]"
COc1ccc2c(c1)Cc1sc(NC(=O)c3ccccc3C)nc1-2,"inconclusive: 60.1 µM [inhibitor, partial curve]",,"inconclusive: 4.47 µM [activator, full curve]"
Cc1ccc(CSC2=NCCN2S(=O)(=O)c2ccc(F)cc2)cc1,"inconclusive: 35.5 µM [inhibitor, partial curve, poor fit]",inactive: 4.55% [at 30.8 µM],
CCN(CC)C(=S)Oc1c(Cl)cccc1Cl,inactive,,"inconclusive: 0.01 µM [activator, full curve, poor fit]"

SMILES,Potency [1],activation [2],Potency [2]
O=C1/C(=C/c2ccco2)Oc2c1ccc(O)c2CN1CCCCC1,"inconclusive: 3.01 µM [inhibitor, full curve, poor fit]",,inactive
COc1cc(/C=N/NC(=O)c2ccccn2)ccc1OC(=O)c1ccc(Br)cc1,inactive,,"inconclusive: 14.1 µM [activator, partial curve, poor fit]"
Cc1nc2c(OCc3ccc(OC(F)F)cc3)cccn2c1N(C)C(=O)CCC1CCCC1,"inconclusive: 60.1 µM [inhibitor, partial curve]",,"inconclusive: 1.58 µM [activator, partial curve, poor fit]"
NS(=O)(=O)c1ccc(-c2cccc(/C=C3\SC(=O)NC3=O)c2)cc1,active: 33.8 µM,,inactive
CC(C)Nc1nc(NC(C)C)nc(OCCOC(=O)c2ccccc2)n1,"inconclusive: 16.9 µM [inhibitor, full curve, poor fit]",inconclusive: 64.2% [activator],
CC(=C\c1ccccc1)/C=C1/SC(=S)N(CCCC(=O)O)C1=O,active: 84.9 µM,,"inconclusive: 50.1 µM [activator, partial curve, poor fit]"
NS(=O)(=O)c1ccc(Nc2nc(-c3cccc([N+](=O)[O-])c3)cs2)cc1,"inconclusive: 50.1 µM [inhibitor, partial curve]",inactive: 15.6% [at 30.8 µM],
Cc1ccc(S(=O)(=O)Nc2cc(=O)[nH]c(SCC(=O)Nc3cccc(C)c3)n2)cc1,inactive,inconclusive: 45.2% [activator] [at 30.8 µM],
Nc1ccc2ccc(O)cc2c1,"inconclusive: 44.7 µM [inhibitor, partial curve]",inconclusive: 38.2% [activator] [at 30.8 µM],
COC(=O)C1=CN(Cc2ccc(OC)c(OC)c2)C=C(C(=O)OC)C1c1ccccc1F,"inconclusive: 84.9 µM [inhibitor, partial curve, poor fit]",,inactive
COc1ccccc1N1C(=O)C2C(C(=O)c3ccccc3)=NN(c3ccc(Br)cc3)C2C1=O (stereo unspecified),"inconclusive: 95.3 µM [inhibitor, single point]",,inactive
CCC[C@H]1CC(=O)C=C(c2ccsc2)ON1C(=O)OC(C)(C)C,"inconclusive: 84.9 µM [inhibitor, partial curve, poor fit]",,inactive
COc1ccc(NC(=O)Cn2ncc(Cl)c(Cl)c2=O)cc1S(=O)(=O)N1CCOCC1,"inconclusive: 31.6 µM [inhibitor, partial curve]",inconclusive: 54.7% [activator] [at 30.8 µM],
COc1cc(S(=O)(=O)Nc2ccc(C)cc2)ccc1N=Cc1c(C)c(C#N)c(=O)n(C)c1O,inactive,,"inconclusive: 14.1 µM [activator, partial curve, poor fit]"
N#Cc1c(NC(=O)c2ccc(Br)o2)n(-c2ccccc2)c2nc3ccccc3nc12,active: 50.1 µM,,"inconclusive: 5.62 µM [activator, partial curve, poor fit]"
CCc1ccccc1OCC(=O)NCC1COc2ccccc2O1 (stereo unspecified),"inconclusive: 75.7 µM [inhibitor, partial curve, poor fit]",,"inconclusive: 22.4 µM [activator, partial curve, poor fit]"
COC(=O)c1cc2ccsc2n1Cc1cccc(F)c1,inactive,,inactive
O=C(Nc1cc(-c2ccccc2)sc1C(=O)O)c1cccc(F)c1,active: 47.8 µM,,inactive
CC(C)(C)c1ccc(Cn2nnc3c(=O)[nH]c(C4CCN(C(=O)Cc5cccs5)CC4)nc32)cc1,"inconclusive: 53.6 µM [inhibitor, partial curve, poor fit]",,inactive
COc1ccc(-c2nn(-c3ccccc3)cc2/C=N/n2cnnc2)cc1OC,inactive,inconclusive: 46% [activator],
CS(=O)(=O)c1cccc(C(=O)OCC(=O)c2ccc3c(c2)OCCO3)c1,inactive,inconclusive: 28.7% [activator] [at 30.8 µM],
Cc1ccccc1CN1C(=O)c2ccccc2Sc2ccc(C(=O)O)cc21,inactive,,inactive
Cc1ccc(-c2nc3ccc(Br)cn3c2Cc2ccccc2)cc1,"inconclusive: 84.9 µM [inhibitor, partial curve, poor fit]",inconclusive: 9.78% [activator],
CCCN(CCC)C(=O)Cn1c(=O)c2sccc2n2c(=S)sc(-c3ccccc3)c12,"inconclusive: 50.1 µM [inhibitor, partial curve, poor fit]",inactive: -0.211% [at 30.8 µM],

# From PubChem BioAssay (NCATS)
